Reference: the supplement of paper PMC7826260
This is one part of the list. Each Rep nickase domain was tested in vitro on the same pool of single strands for 1 h at 37 °C with 3 µM enzyme; only the middle of the 90-letter strands is printed. A value is the log2 ratio of uncut reads to the pool without enzyme; uncut sequences lie near 0, cut ones below; no hit call is given. Shares of all reads are compared; where an enzyme cuts many sequences, the uncut ones exceed 0.

Experiments:
Test in all cases: uncleaved DNA left, log2 of reads against the no-enzyme library (log2 ratio); higher = less cleavage (more negative = more Rep cleavage of the k-mer); sequences stand for … in CTCGTCCG…ACCGGAGA
[1] = system: T1, Rep nickase domain of Muscovy duck circovirus
T1 sequence (residues 1-111, tag not shown): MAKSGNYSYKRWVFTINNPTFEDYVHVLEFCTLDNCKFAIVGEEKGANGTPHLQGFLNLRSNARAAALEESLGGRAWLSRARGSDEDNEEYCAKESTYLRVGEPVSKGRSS
Procedure: (§1)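 A pool of 90-nt single-stranded DNAs with seven random bases just before the constant AC of the nick site (name = the seven bases) was cut by 3 µM recombinant His6-SUMO-tagged Rep nickase domain (300 nM DNA, 50 mM HEPES pH 8.0, 50 mM NaCl, 1 mM MnCl2, 1 h, 37 °C, three replicates). Uncut DNA was amplified and sequenced.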

[2] = system: T2, Rep nickase domain of banana bunchy top virus
T2 sequence (residues 1-94, tag not shown): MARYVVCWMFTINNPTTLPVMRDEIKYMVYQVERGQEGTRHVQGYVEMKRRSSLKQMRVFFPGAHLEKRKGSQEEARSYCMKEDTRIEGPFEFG
Procedure: as §1

[3] = system: T3, Rep nickase domain of cabbage leaf curl virus
T3 sequence (residues 1-116, tag not shown): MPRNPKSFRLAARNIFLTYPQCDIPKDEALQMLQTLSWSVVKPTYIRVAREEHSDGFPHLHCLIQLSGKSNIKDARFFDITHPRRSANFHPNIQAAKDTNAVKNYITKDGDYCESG
Procedure: as §1

[4] = system: T4, Rep nickase domain of chickpea chlorotic dwarf virus
T4 sequence (residues 1-124, tag not shown): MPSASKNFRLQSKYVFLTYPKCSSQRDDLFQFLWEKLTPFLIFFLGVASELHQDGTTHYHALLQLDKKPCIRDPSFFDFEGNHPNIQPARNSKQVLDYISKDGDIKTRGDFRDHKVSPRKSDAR
Procedure: as §1

[5] = system: T5, Rep nickase domain of faba bean necrotic yellows virus
T5 sequence (residues 1-98, tag not shown): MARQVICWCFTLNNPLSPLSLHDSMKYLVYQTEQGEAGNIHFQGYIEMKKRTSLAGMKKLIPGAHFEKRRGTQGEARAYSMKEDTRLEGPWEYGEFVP
Procedure: as §1

[6] = system: T6, Rep nickase domain of maize striate mosaic virus
T6 sequence (residues 1-117, tag not shown): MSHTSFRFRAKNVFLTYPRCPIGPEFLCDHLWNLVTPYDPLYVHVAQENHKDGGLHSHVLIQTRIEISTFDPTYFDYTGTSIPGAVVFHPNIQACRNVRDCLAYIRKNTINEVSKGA
Procedure: as §1

[7] = system: T7, Rep nickase domain of porcine circovirus 2
T7 sequence (residues 2-116, tag not shown): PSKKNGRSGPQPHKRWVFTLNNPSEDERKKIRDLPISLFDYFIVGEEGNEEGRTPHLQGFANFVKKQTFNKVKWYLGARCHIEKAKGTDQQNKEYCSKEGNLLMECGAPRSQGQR
Procedure: as §1

[8] = system: T8, Rep nickase domain of tomato golden mosaic virus
T8 sequence (residues 1-124, tag not shown): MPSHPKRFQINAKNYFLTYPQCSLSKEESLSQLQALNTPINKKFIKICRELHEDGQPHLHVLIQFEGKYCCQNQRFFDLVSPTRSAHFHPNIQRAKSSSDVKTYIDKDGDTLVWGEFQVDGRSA
Procedure: as §1

[9] = system: T9, Rep nickase domain of tomato yellow leaf curl virus
T9 sequence (residues 1-136, tag not shown): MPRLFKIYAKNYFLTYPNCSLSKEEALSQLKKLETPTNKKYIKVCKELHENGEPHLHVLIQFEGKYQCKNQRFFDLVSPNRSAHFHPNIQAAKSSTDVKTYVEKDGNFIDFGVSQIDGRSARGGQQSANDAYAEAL
Procedure: as §1

[10] = system: T10, Rep nickase domain of wheat dwarf virus
T10 sequence (residues 1-137, tag not shown): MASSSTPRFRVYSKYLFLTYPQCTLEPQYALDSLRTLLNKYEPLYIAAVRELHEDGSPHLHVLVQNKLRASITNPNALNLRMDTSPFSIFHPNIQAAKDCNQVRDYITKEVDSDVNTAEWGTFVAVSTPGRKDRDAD
Procedure: as §1

| Sequence | uncleaved DNA left (log2) [1] | uncleaved DNA left (log2) [2] | uncleaved DNA left (log2) [3] | uncleaved DNA left (log2) [4] | uncleaved DNA left (log2) [5] | uncleaved DNA left (log2) [6] | uncleaved DNA left (log2) [7] | uncleaved DNA left (log2) [8] | uncleaved DNA left (log2) [9] | uncleaved DNA left (log2) [10] |
| --- | --- | --- | --- | --- | --- | --- | --- | --- | --- | --- |
| CCACTGA | 0.104 | -0.0401 | 0.046 | 0.308 | 0.032 | 0.44 | 0.0921 | -0.00457 | -0.0363 | -0.118 |
| CTCGCTT | 0.000588 | -0.0893 | 0.0104 | -1.71 | -0.172 | -0.518 | -1.02 | 0.0123 | -0.0104 | -0.129 |
| TTATAAA | -0.0272 | -0.109 | 0.0743 | 0.0438 | -0.105 | -0.149 | -0.014 | -0.0609 | -0.109 | -0.0656 |
| CGTTCTC | -0.0822 | 0.00457 | 0.0675 | 0.0766 | -0.0999 | -0.305 | -0.0749 | -0.161 | -0.0921 | -0.0158 |
| CTCCAGA | -0.0184 | -0.155 | -0.00932 | -0.0961 | -0.149 | -0.752 | 0.00848 | -0.0469 | 0.00185 | 0.0155 |
| TTTCAAG | 0.0693 | -0.0654 | -0.87 | -0.793 | -0.0171 | -1.24 | 0.0666 | -0.124 | -0.0654 | -0.173 |
| ACCTTGC | -0.0233 | 0.0345 | -0.323 | 0.73 | -0.0166 | 0.127 | 0.191 | -0.0516 | 0.0944 | -0.0963 |
| ATCGGGG | 0.172 | -0.0413 | 0.797 | 1.16 | -0.0591 | 1.82 | 0.263 | 0.0696 | -0.173 | 0.131 |
| ACGAATT | -0.0706 | -0.0934 | -0.331 | -2.05 | -0.0112 | -0.404 | -0.595 | -0.013 | -0.115 | -0.0209 |
| CAACGCC | 0.0946 | -0.0114 | -0.0992 | -0.556 | -0.00939 | -0.563 | 0.0432 | 0.0309 | -0.123 | -0.0709 |
| GGTCTGA | 0.046 | 0.117 | 0.602 | 1.28 | -0.0153 | 1.87 | 0.0907 | 0.115 | 0.104 | 0.164 |
| TAGGGAT | -0.00721 | 0.081 | 0.215 | 1.59 | -0.0971 | 1.83 | 0.133 | 0.11 | -0.0735 | 0.00354 |
| AAGTTGG | 0.0118 | -0.0913 | -0.401 | -0.586 | 0.0445 | -1.06 | -0.0917 | 0.0104 | 0.0628 | -0.0824 |
| TTCGGCG | 0.0675 | 0.00137 | -0.634 | 0.648 | 0.0149 | -0.477 | 0.128 | 0.0601 | 0.105 | -0.0696 |
| GTCGGGA | 0.0633 | -0.0128 | 0.398 | 0.934 | -0.039 | 1.47 | 0.0343 | 0.0422 | 0.0344 | 0.125 |
| GAAGACA | 0.0354 | 0.151 | 0.69 | 1.1 | 0.0807 | 1.98 | 0.291 | 0.109 | 0.132 | 0.255 |
| CATGTTC | -0.195 | -0.106 | -0.0465 | -1.56 | -0.0687 | -0.886 | -0.092 | -0.121 | -0.0439 | -0.0816 |
| TGTTCCG | -0.032 | -0.1 | -0.97 | -0.326 | -0.0868 | -1.17 | 0.022 | -0.22 | -0.0996 | -0.152 |
| GGGCCGT | 0.057 | 0.0327 | 0.78 | 1.78 | -0.0883 | 2.21 | 0.128 | -0.0114 | 0.0243 | 0.078 |
| TCGCGTA | 0.0458 | -0.0339 | -0.599 | -0.926 | -0.0864 | -1.07 | 0.0313 | -0.105 | -0.102 | -0.0973 |
| AGATTAA | 0.0269 | 0.0249 | 0.142 | 0.139 | 0.154 | -0.274 | -0.0633 | 0.0692 | 0.15 | -0.0336 |
| TCCCGAC | 0.0151 | -0.0631 | 0.0188 | -0.0705 | -0.14 | -0.366 | -0.151 | -0.0418 | -0.158 | -0.111 |
| CTCACTA | 0.0399 | 0.054 | 0.0192 | -1.46 | 0.0716 | -0.608 | 0.0589 | -0.0174 | 0.105 | 0.0599 |
| TGGATGC | 0.0127 | -0.0817 | 0.154 | 0.375 | -0.0821 | -0.249 | 0.152 | 0.0217 | 0.0535 | 0.111 |
| AGTATGT | 0.068 | -0.0513 | -0.0805 | 0.0805 | 0.00592 | -0.0158 | -3.16 | -0.0362 | 0.116 | -0.0315 |
| GAATGCT | -2.95 | -0.299 | -3.07 | -2.41 | -0.105 | -2.08 | -3.22 | -3.1 | -0.151 | -2.98 |
| AGGATGG | 0.107 | -0.144 | -0.07 | 0.122 | -0.0879 | -0.28 | 0.0951 | 0.0637 | -0.141 | -0.0778 |
| TCGGACG | 0.0137 | 0.133 | -0.319 | -0.311 | -0.0755 | -0.885 | 0.0618 | 0.00712 | 0.139 | 0.0982 |
| AGTAAAG | 0.122 | 0.0745 | -0.603 | -0.424 | 0.092 | -0.916 | 0.242 | 0.153 | 0.153 | 0.00319 |
| GCCCTGA | -0.0956 | -0.0641 | 0.0217 | 0.377 | -0.0313 | 0.404 | -0.0579 | -0.0463 | -0.144 | -0.0455 |
